Measurements as given in PubChem BioAssay AID686978 (National Center for Advancing Translational Sciences (NCATS), 2013).
Screen size: about 420,000 compounds; about 64,000 (15%) were called active. This list was built around the results that the source calls inconclusive (neither active nor inactive); the mix of calls is not that of the screen. Calls follow the shape of the dose curve; as a rule, active = well fitted inhibition curve with a large enough effect; inconclusive = small, poorly fitted or top-dose-only effect; inactive = flat fitted curve, though single readings scatter. No potency is given beside an inconclusive call; the fits are too rough.

Assay: qHTS for Inhibitors of human tyrosyl-DNA phosphodiesterase 1 (TDP1): qHTS in cells in absence of CPT; also: nearly all actives have a fitted effect of over 55% in size
Conditions: DT40 Tdp1-/- hTDP1 cells, no CPT, ATP luminescence, 48 h; activity change, negative = growth inhibition: at 46.2 µM (top of the series) unless noted
Outline: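 Chicken DT40 Tdp1-/- cells complemented with human TDP1, screened without camptothecin (DMSO vehicle only), 400 cells/well. Compounds pin-transferred, cells incubated at 37 °C for at least 48 hr. Growth read as ATP-dependent luminescence (CellTiter-Glo, 30 min at RT).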
% is scaled to controls: 0 for no effect and ±100 for the full control effect; potency is read from the fitted curve at half-maximal effect; tags tell the direction and shape of the fitted curve.

| SMILES | Potency | activity change, negative = growth inhibition |
| --- | --- | --- |
| Cc1ccccc1Nc1nc(N)nc(CN2CCN(Cc3ccc4c(c3)OCO4)CC2)n1 | inconclusive [inhibitor, single point] |  |
| CCCOC(=O)c1cc(O)c(O)c(O)c1 | inconclusive [inhibitor, single point] |  |
| CCOc1ccc(OCCSc2nc3ccccc3c(=O)[nH]2)cc1 | inconclusive [inhibitor, partial curve] |  |
| COc1ccc(COCCN2CCN(S(=O)(=O)c3ccc(C)cc3)CCC2=O)cc1 | inconclusive [inhibitor, partial curve, poor fit] |  |
| CN(CC(=O)Nc1ccccc1Br)C(=O)c1sccc1-c1ccccc1 | active: 13 µM |  |
| COC(=O)c1c(C)[nH]c(C)c1-c1ccc([N+](=O)[O-])cc1 | inconclusive [inhibitor, single point] |  |
| CN(CCC#N)c1ccc(C=O)cc1 |  | inactive: -5.8% |
| O=C1c2ccccc2C(=O)N1Cc1nn2c(-c3ccc(Cl)cc3)nnc2s1 | inconclusive [inhibitor, single point] |  |
| COc1cc2c(cc1OC)C(C)N(C(=S)Nc1ccccc1)CC2 (stereo not given) |  | inconclusive: -30% [inhibitor] |
| COc1ccc(-c2nc3sc(CCNC(=O)Cc4ccc(Cl)cc4)c(C)n3n2)cc1 | inconclusive [inhibitor, single point] |  |
| C=CCn1c(SCC(C)=O)nc2scc(-c3ccc(C)o3)c2c1=O | inconclusive [inhibitor, single point] |  |
| FC(F)(F)c1cnc(-c2cnc3c(-c4ccc(Cl)cc4)cnn3c2)c(Cl)c1 | inconclusive [inhibitor, single point] |  |
| O=C(c1ccco1)N1CCC2(CCCN(c3ccncc3)C2)CC1 |  | inactive: -27.9% |
| O=C(NNC(=O)c1cc2cc(OC(F)(F)F)ccc2[nH]1)c1cccc(C(F)(F)F)c1 | inconclusive [inhibitor, single point] |  |
| CCN(CC)c1ccc(C(=O)NCc2ccc3c(c2)CCN3C(=O)c2cccc(C)c2)cc1 | inconclusive [inhibitor, partial curve] |  |
| CCOc1ccc(C2C(=O)N(C3CCCCCC3)CC(=O)N2Cc2ccc(F)cc2)cc1OC (stereo not given) | inconclusive [inhibitor, single point] |  |
| O=C(COC(=O)C1(c2ccc(F)cc2)CCCC1)NC1CC1 |  | inactive: -0.0748% |
| O=C(c1ccc(=O)oc1)N1CCC(C(O)(c2ccccc2)c2ccccc2)CC1 | inconclusive [inhibitor, single point] |  |
| CSc1ccccc1C(=O)N1CCN(c2ncccn2)CC1 |  | inactive: 2.77% |
| COc1cc(-c2cc(=O)c3c(O)c(OC)c(OC)c(O)c3o2)ccc1O | inconclusive [inhibitor, single point] |  |
| Fc1ccc(NC(=S)Nc2ccccc2Cl)cc1 |  | inconclusive: -32.6% [inhibitor] |
| Cc1ccc(C(=O)N(Nc2nc3ccccc3s2)C(=O)c2ccc(C)cc2)cc1 | inconclusive [inhibitor, partial curve, poor fit] |  |
| COC(=O)c1ccccc1NC(=O)CNCCc1ccc(OC)c(OC)c1 |  | inactive: -22.9% |
| COc1cc(OC)cc(C(=O)N[C@H](C(=O)Nc2ccc(S(=O)(=O)N(C)C)cc2)C(C)C)c1 | inconclusive [inhibitor, partial curve] |  |

| SMILES | Potency | activity change, negative = growth inhibition |
| --- | --- | --- |
| Cc1ccc2nc(-c3cccc(Br)c3)c(CC3CCCCC3)n2c1 | inconclusive [inhibitor, single point] |  |
| CCc1nc2c(OCc3ccc(Cl)cc3)cccn2c1N(C)C(=O)c1ccccc1F | inconclusive [inhibitor, single point] |  |
| CC(CCc1ccccc1)NC(=O)CNC(=S)N(Cc1cccs1)C1CCCC1 (stereo not given) | inconclusive [inhibitor, single point] |  |
| C#Cc1cccc(NC(=O)c2ccc(Cl)cc2Cl)c1 | active: 29.1 µM |  |
| O=C1CCCc2c1oc1c2CCCC1 |  | inactive: -4.57% |
| CCOCc1c(C(=O)Nc2ccc(OC)nc2)oc2ccccc12 | active: 18.4 µM |  |
| C/C=C/Cn1c(SCc2ccc(Cl)cc2)nc2c1c(=O)[nH]c(=O)n2C | active: 23.1 µM |  |
| COC(=O)c1ccc(COC(=O)[C@@H]2CC(O)CN2S(=O)(=O)c2ccccc2[N+](=O)[O-])cc1 (stereo not given in full) |  | inactive: -16% |
| CCOc1ccc(CCNC(=O)C(CC(C)C)N2Cc3ccccc3C2=O)cc1OCC (stereo not given) | active: 9.2 µM |  |
| CCOc1ccc(OCCOCCn2c(-c3ccc(Cl)cc3)nc3ccccc3c2=O)cc1 | inconclusive [inhibitor, single point] |  |
| Cc1ccc(C(=O)N2CCCC(Nc3ccc(F)c(F)c3)C2)cn1 (stereo not given) |  | inactive: -2.27% |
| CCC1=C(C(=O)OC)C(c2cc(OC)ccc2OC)C(C#N)=C(N)O1 (stereo not given) |  | inactive: -25% |
| COc1ccc(Nc2ncnc3c2cnn3-c2cc(Cl)ccc2C)cc1OC | inconclusive [inhibitor, single point] |  |
| COc1ccc(Br)cc1S(=O)(=O)N1CCN=C1c1ccccc1 | inconclusive [inhibitor, partial curve] |  |
| CCOc1ccc(S(=O)(=O)N(CCO)CCO)cc1-c1nc2c(C(C)(C)C)nn(C)c2c(=O)[nH]1 | active: 18.4 µM |  |
| Cc1cc(N2CCOCC2)nc(SCc2c(Cl)cccc2Cl)n1 | inconclusive [inhibitor, single point] |  |
| CCOc1ccccc1C(=O)Nc1nn[nH]n1 |  | inactive: -16.8% |
| O=C(OCc1cc(Cl)ccc1OC(F)F)c1cccnc1 |  | inactive: -12.6% |
| COc1ccc([C@@H]2C[C@@H](c3ccccc3)Oc3cc(OC)cc(OC)c32)cc1 | inconclusive [inhibitor, single point] |  |
| COc1ccc2c(c1)c1c(c(=O)n(CCc3ccccc3)c(=O)n1Cc1cccc(C)c1)n2C |  | inactive: -22% |
| Cc1ccc(-n2nc3c(N4CCC(C(=O)NCCc5ccco5)CC4)nnc(C)c3c2C)cc1 | inconclusive [inhibitor, partial curve] |  |
| O=C(/C=C/c1ccc(F)cc1)Nc1cc(S(=O)(=O)N2CCOCC2)ccc1N1CCCC1 | inconclusive [inhibitor, single point] |  |
| CCn1c(CC(=O)Nc2ccc(F)cc2)nnc1SCC(=O)Nc1nnc(C)s1 | inconclusive [inhibitor, full curve, poor fit] |  |
| Nc1cccc2c1C(=O)N(CC(=O)NC13CC4CC(CC(C4)C1)C3)C2=O |  | inactive: -2.38% |

| SMILES | Potency | activity change, negative = growth inhibition |
| --- | --- | --- |
| O=C(CCN1C(=O)C2C3C=CC(C3)C2C1=O)N1CCN(c2ccc(F)cc2)CC1 (stereo not given) | inconclusive [inhibitor, partial curve, poor fit] |  |
| CCCCNC(=O)CNC(=S)N(Cc1ccccc1)Cc1cccnc1 |  | inconclusive: -30% [inhibitor] |
| Cc1cc(SCc2c(F)cccc2Cl)nc(=O)[nH]1 |  | inactive: -21.7% |
| CN(c1ccccc1)S(=O)(=O)c1cccc(NC(=O)CCNC(=O)c2ccc([N+](=O)[O-])cc2)c1 | inconclusive [inhibitor, partial curve] |  |
| Cc1nn(CC(=O)N2c3ccccc3NC(=O)C2(C)C)c(C)c1[N+](=O)[O-] |  | inconclusive: -16.6% [inhibitor] |
| CCCCN(CC)CCCNC(=O)Cn1nc(CC)n2c(cc3sccc32)c1=O | inconclusive [inhibitor, single point] |  |
| O=c1[nH]c(N2CCc3ccccc3C2)nc2c1CCC2 |  | inactive: -20.3% |
| CC(=O)Nc1ccccc1Nc1cc(C#N)c(C#N)cc1[N+](=O)[O-] | inconclusive [inhibitor, partial curve] |  |
| CCc1nc(SCC(=O)NCc2ccc(F)cc2)c2c(=O)n(C)c(=O)n(C)c2n1 |  | inactive: -4.97% |
| Cc1ccc(C(=O)OC2=C(C(=O)c3ccccc3)N(C)S(=O)(=O)c3ccccc32)cc1 | inconclusive [inhibitor, single point] |  |
| CC(=O)c1cccc(NC(=O)C(C)N(C)CC(=O)Nc2ccc(Cl)cc2)c1 (stereo not given) | inconclusive [inhibitor, single point] |  |
| COc1ccc(S(=O)(=O)N2CCCCC2)cc1C(=O)N1CCCC1 |  | inactive: -4.82% |
| O=C(c1cc(Cl)cc(Cl)c1)N1CCC2CC1c1cc(-c3ccc4c(c3)OCO4)ccc12 (stereo not given) | inconclusive [inhibitor, single point] |  |
| C[N+]1(CC(O)COc2ccccc2)CCN(C(=O)c2ccc([N+](=O)[O-])cc2)CC1 (stereo not given) |  | inactive: 5.86% |
| CC(C)c1ccc(Cc2nnc(NCCCO)[nH]c2=O)cc1 |  | inactive: -9.08% |
| O=C(Nc1cccnc1)Nc1ccc(F)c(Cl)c1 | inconclusive [inhibitor, single point] |  |
| COc1ccccc1C(c1nnnn1CS(=O)(=O)c1ccc(C)cc1)N1CCSCC1 (stereo not given) | inconclusive [inhibitor, partial curve] |  |
| CCOC(=O)c1c(-c2ccccc2)csc1NC(=S)N(CC)CC | inconclusive [inhibitor, single point] |  |
| CCOC(=O)c1ccc(S(=O)(=O)N2CCC(C(=O)NCC3COc4ccccc4O3)CC2)cc1 (stereo not given) | active: 23.1 µM |  |
| COc1ccc(Cc2nnc(NC(=O)c3ccccc3F)s2)cc1 | inconclusive [inhibitor, single point] |  |
| Cc1c(C(=O)NCc2ccc(F)cc2)sc(=O)n1Cc1ccc(Cl)c(Cl)c1 | inconclusive [inhibitor, single point] |  |
| S=c1[nH]nc(Cc2sc(-c3ccccc3)nc2-c2ccccc2)o1 | inconclusive [inhibitor, single point] |  |
